{"source": "PubChem BioAssay AID686979", "about": "(National Center for Advancing Translational Sciences (NCATS), 2013)", "note": "The whole screen tested about 420,000 compounds, of which about 50,000 (12%) were called active. Inconclusive means that the source gave no clear call. Such entries were picked first, then a sample of the others. Calls follow the shape of the dose curve; as a rule, active = well fitted inhibition curve with a large enough effect; inconclusive = small, poorly fitted or top-dose-only effect; inactive = flat fitted curve, though single readings scatter. Potencies of inconclusive entries are left out as doubtful fits. % is scaled to controls: 0 for no effect and ±100 for the full control effect; potency is read from the fitted curve at half-maximal effect; tags tell the direction and shape of the fitted curve.", "data": [{"experiment": "qHTS for Inhibitors of human tyrosyl-DNA phosphodiesterase 1 (TDP1): qHTS in cells in presence of CPT; also: nearly all actives have a fitted effect of over 55% in size", "settings": "chicken DT40 Tdp1-/-;hTDP1 cells + 20 nM CPT, ATP luminescence, 48 h; activity change, negative = growth inhibition: at 46.2 µM (top of the series)", "procedure,_shortened": "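Cell growth measured by CellTiter-Glo luminescence after a minimum 48 h, 37 C compound exposure with 20 nM CPT in Tdp1-knockout DT40 cells stably expressing hTDP1, seeded 400/well; qHTS titration format.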", "values": [{"compound": "COc1ccc(Cc2c(-c3ccccc3)nc3c4ccccc4ccn23)c(C)c1", "Potency": "inconclusive [inhibitor, partial curve]"}, {"compound": "Cc1ccc(SCc2c(C#N)c3ccccc3n2C)cc1", "Potency": "active: 20.6 µM"}, {"compound": "O=C(NNC(=O)c1cc(Br)ccc1O)c1csc(N2CCOCC2)n1", "Potency": "inconclusive [inhibitor, single point]"}, {"compound": "COc1ccc(Cl)cc1-c1n[nH]c(=S)n1Cc1ccccc1", "Potency": "inconclusive [inhibitor, partial curve]"}, {"compound": "Cc1noc(C)c1S(=O)(=O)N1CCCC(C(=O)NC2CCCCC2)C1", "note": "(stereo not given)", "Potency": "inactive"}, {"compound": "CC(C)Oc1ccc2ccccc2c1CNC[C@H]1O[C@@H](n2cnc(C(N)=O)n2)[C@H](O)[C@@H]1O", "Potency": "inactive"}, {"compound": "O=C1Nc2cc(S(=O)(=O)N3CCCC3)ccc2N2CCCC12", "note": "(stereo not given)", "Potency": "inconclusive [inhibitor, partial curve]"}, {"compound": "O=C(CCCN=C1NS(=O)(=O)c2ccccc21)OCC(=O)c1ccccc1Cl", "Potency": "inconclusive [inhibitor, single point]"}, {"compound": "C=CCNc1nc(-c2sc(NC(C)=O)nc2C)cs1", "Potency": "active: 10.3 µM"}, {"compound": "CC(=O)Nc1ccccc1-c1nc2ccccc2n(C(C)C(=O)Nc2cc(Cl)ccc2C)c1=O", "note": "(stereo not given)", "Potency": "inconclusive [inhibitor, single point]"}, {"compound": "Cc1c([N+](=O)[O-])cc(C(=O)Oc2cccc(C(=S)N3CCOCC3)c2)cc1[N+](=O)[O-]", "Potency": "inactive"}, {"compound": "Cc1[nH]c2ccc(C(=O)NCCCN3CCCC3)cc2c1C", "Potency": "inactive"}, {"compound": "Cn1cc(S(=O)(=O)NC[C@H]2O[C@@H](n3cnc4c(N)ncnc43)[C@H](O)[C@@H]2O)cn1", "Potency": "inactive"}, {"compound": "Cc1ccccc1N1CCN(C2CCCN(C(=O)CN3CCCC3=O)C2)CC1", "note": "(stereo not given)", "Potency": "inactive"}, {"compound": "CN(C)c1ccc(/C=C/CNC[C@H]2O[C@@H](n3ccc(N)nc3=O)[C@H](O)[C@@H]2O)cc1", "Potency": "inactive"}, {"compound": "CC(=O)Nc1ccc(NC(=O)CCc2c(C)nc3c(c(C)nn3-c3ccc(C)cc3)c2C)cc1", "Potency": "active: 14.6 µM"}, {"compound": "CC(=O)c1c(C)[nH]c(C(=O)CSc2nnc(C3CCCCC3)n2N)c1C", "Potency": "active: 18.4 µM"}, {"compound": "CC(=O)Nc1ccc(S(=O)(=O)Nc2cccc(C(=O)Nc3ccccc3C(=O)O)c2)cc1", "Potency": "inconclusive [inhibitor, partial curve]"}, {"compound": "Cc1cc(Nc2cccc([N+](=O)[O-])c2)c2cccc(C)c2n1", "Potency": "inconclusive [inhibitor, single point]"}, {"compound": "C/C(=N\\OCC(=O)NC(C)C)c1cccs1", "activity change, negative = growth inhibition": "inconclusive: -26% [inhibitor]"}, {"compound": "CCN(c1ccccc1)S(=O)(=O)c1ccc(Cl)c(NC(=O)CN(C)Cc2cccc(F)c2)c1", "Potency": "active: 16.4 µM"}, {"compound": "CCCn1c(=N)n(CC(=O)c2ccco2)c2ccccc21", "Potency": "inactive"}, {"compound": "COc1ccc(-c2nc(N)nc(C(F)(F)F)c2-c2ccccc2OC)c(O)c1", "Potency": "inconclusive [inhibitor, single point]"}, {"compound": "Cc1sc2nc(CN3CCOCC3)[nH]c(=S)c2c1C", "Potency": "inconclusive [inhibitor, single point]"}, {"compound": "FC(F)(F)c1ccccc1-c1ccc2ncnc(NCCN3CCOCC3)c2c1", "Potency": "inconclusive [inhibitor, single point]"}, {"compound": "CC(c1nc2ccccc2c(=O)[nH]1)N(C)c1ccc2ccccc2c1", "note": "(stereo not given)", "Potency": "inconclusive [inhibitor, partial curve]"}, {"compound": "COc1ccc(CCNC(=O)COc2cc(C)cc3oc(=O)cc(C)c23)cc1OC", "Potency": "inconclusive [inhibitor, partial curve, poor fit]"}, {"compound": "COc1ccc(S(=O)(=O)N2CCCCC2)cc1N(C)S(=O)(=O)c1ccccc1", "Potency": "inconclusive [inhibitor, single point]"}, {"compound": "O=C(Nc1cnn(Cc2ccc(F)cc2)c1)c1cc(-c2ccco2)on1", "Potency": "inconclusive [inhibitor, partial curve]"}, {"compound": "CC(C)(C)c1ccc(/C=N/NC(=S)NC2CCCCC2)cc1", "Potency": "active: 14.6 µM"}, {"compound": "Cn1c(=O)c2sccc2n2c(CCCC(=O)Nc3ccc(Cl)cc3)nnc12", "Potency": "active: 20.6 µM"}, {"compound": "Cn1cccc1CNC(=O)Nc1ccccc1", "Potency": "inconclusive [inhibitor, single point]"}, {"compound": "CCOC(=O)c1c(NC(=S)Nc2ccc(OC)cc2)sc2c1CCC2", "Potency": "inactive"}, {"compound": "CC1(C(=O)NS(=O)(=O)c2ccccc2Cl)CCN1C(=O)CCc1cccs1", "note": "(stereo not given)", "Potency": "inactive"}, {"compound": "COc1ccc([C@@H]2C[C@H]3CN(Cc4ccccc4OC)C(=O)[C@]34CCCN24)cc1C", "Potency": "inconclusive [inhibitor, single point]"}, {"compound": "O=C(c1ccc(CS(=O)(=O)c2cccc(C(F)(F)F)c2)o1)N1CCN(c2ccccn2)CC1", "Potency": "inconclusive [inhibitor, single point]"}, {"compound": "O[C@@H]1CN(CC2CCCCC2)[C@@H](c2ccccc2)C[C@H]1n1cc(-c2ccc(F)cc2)nn1", "Potency": "inconclusive [inhibitor, single point]"}, {"compound": "COc1ccc(C(=O)NNC(=O)C23CC4CC(CC(C4)C2)C3)c(OC)c1", "Potency": "inactive"}, {"compound": "Cc1c(C=O)c2ccccn2c1C(=O)c1ccc(F)cc1", "activity change, negative = growth inhibition": "inconclusive: -32.4% [inhibitor]"}, {"compound": "COc1cc(C#CC#CCN2CCCCC2)ccc1O", "Potency": "inconclusive [inhibitor, partial curve]"}, {"compound": "C(#Cc1ccc(C#CCN2CCCC2)cc1)CN1CCCC1", "Potency": "inconclusive [inhibitor, single point]"}, {"compound": "CCOc1ccc2nc(NC(=O)C3CCCN(S(=O)(=O)c4cccc5nonc45)C3)sc2c1", "note": "(stereo not given)", "Potency": "inconclusive [inhibitor, single point]"}, {"compound": "CCN(CCC(=O)Nc1cc([N+](=O)[O-])ccc1OC)Cc1ccccc1", "Potency": "inconclusive [inhibitor, single point]"}, {"compound": "FC(F)(F)c1nnc2c(Sc3ccc(Cl)cc3)nc3ccccc3n12", "Potency": "active: 2.59 µM"}, {"compound": "O=C(Cc1ccc(Oc2ccccc2)cc1)NO", "Potency": "inconclusive [inhibitor, single point]"}]}]}
